In the supplement of paper PMC10126150:
Values marked as one replicate rest on one cluster of the flow cell; about a third of the high ones do not repeat.

Tested on: ATP
Experiment: switch fluorescence ratio, 500 uM ATP over buffer (Cy3 cluster intensity, sum of 5 cycles each) (fold (ratio)); higher = stronger signal-on switching upon ATP binding; sequences stand for … in TCGTCGGCAGCGTCAGATGTGTATAAGAGACAGTTTTTTTTTTTTTTTTTTTTTTTTT…TC
Conditions: aptamer strand: ATP DNA aptamer (quencher-CACCTGGGGGAGTATTGCGGAGGAAGG + anchor), 100 nM annealed; ATP concentration: 500 uM; one replicate
Procedure, shortened: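 For every switch-domain sequence, the fluorescence ratio is the mean of per-cluster values, each being summed target-cycle Cy3 intensity over summed buffer-cycle Cy3 intensity. Clusters outside 100-1000 RFU were excluded. On a modified Illumina MiSeq flow-cell, the Cy3-labelled switching-strand clusters were annealed to 100 nM quencher-labelled ATP aptamer, imaged in selection buffer and then after 15 min with 500 uM ATP at 22 °C. Five such cycles were run, with NaOH stripping and re-annealing between them.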
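Further: ATP exposure 15 min at 22 °C before imaging.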

GAGTATACAG
switch fluorescence ratio: 0.969

CGCAATTAG
switch fluorescence ratio: 6.73

CTCGTATGTC
switch fluorescence ratio: 1.06

AAGAGAATGT
switch fluorescence ratio: 0.961

GGTGGAAGGC
switch fluorescence ratio: 0.981

GTCACACTAC
switch fluorescence ratio: 1.41

CTATGGCATA
switch fluorescence ratio: 1.04

ATATTTAAGC
switch fluorescence ratio: 0.941

ATGACTGAAC
switch fluorescence ratio: 1.29

CATGACCGAC
switch fluorescence ratio: 1.34

GGGTAGGATG
switch fluorescence ratio: 0.981

GATGAGAAAG
switch fluorescence ratio: 1.02

TTCAGCGGGC
switch fluorescence ratio: 1.09

TCACGACTGT
switch fluorescence ratio: 1.01

TCACGTTCGC
switch fluorescence ratio: 1.02

CTATTGTTA
switch fluorescence ratio: 0.972

ATGGATCT
switch fluorescence ratio: 0.956

GGGTAGAGAT
switch fluorescence ratio: 0.994

GCTCCGACCT
switch fluorescence ratio: 1.58

GACCGATTTG
switch fluorescence ratio: 1.01

CGCCTCCAAT
switch fluorescence ratio: 1.49

GCCGAACCTT
switch fluorescence ratio: 1.04

ATGGACCCTG
switch fluorescence ratio: 0.978

CGTTTAGGAG
switch fluorescence ratio: 0.969

GGCTTCATCA
switch fluorescence ratio: 1.03

TACGGTGACG
switch fluorescence ratio: 1

ACCTACTGCA
switch fluorescence ratio: 1.38

ACTTGGGCC
switch fluorescence ratio: 1.04

CTACGCCACG
switch fluorescence ratio: 1.53

ATCAGGCGT
switch fluorescence ratio: 1.05

AGATTGGTCC
switch fluorescence ratio: 0.887

ATTAAAGATG
switch fluorescence ratio: 0.991

GCTAGCCTAG
switch fluorescence ratio: 1.07

GTAAATTAGG
switch fluorescence ratio: 1.07

ATGTAGGTAG
switch fluorescence ratio: 0.997

ACGTGAAAAC
switch fluorescence ratio: 1.88

ACCGGTGCAA
switch fluorescence ratio: 2.95

GATCCACCCA
switch fluorescence ratio: 1.05

TTATTCTCTC
switch fluorescence ratio: 1.04

CGGTTGCAAA
switch fluorescence ratio: 1.1

CTTGGGGGTT
switch fluorescence ratio: 1.02

CAACTTATAA
switch fluorescence ratio: 1.06

ATACCCTGTA
switch fluorescence ratio: 1.02

GTTAGTTGC
switch fluorescence ratio: 0.99

ATAAGTAGCT
switch fluorescence ratio: 1.03

AGGTCTCTGA
switch fluorescence ratio: 1

ACCGCCCCGT
switch fluorescence ratio: 2.45

TATGCTTCGG
switch fluorescence ratio: 0.967

TGACCTCGGA
switch fluorescence ratio: 1

CAATGGTCGG
switch fluorescence ratio: 1.01

TCGTTAGGAC
switch fluorescence ratio: 0.983

TGTCGTATTT
switch fluorescence ratio: 1.01

ACACATGGT
switch fluorescence ratio: 1.04

GAATATTACG
switch fluorescence ratio: 1.01

TCGTATATCT
switch fluorescence ratio: 1.03

GTGTTATTGG
switch fluorescence ratio: 0.998

AGTTAATTAA
switch fluorescence ratio: 0.989

GAGGCAGCGG
switch fluorescence ratio: 1.07

CTCGGAAATG
switch fluorescence ratio: 0.984

AGCAGATGCG
switch fluorescence ratio: 1

TAAATATCGG
switch fluorescence ratio: 1.02

ATGGTCAAA
switch fluorescence ratio: 0.989

CATTACTGCA
switch fluorescence ratio: 1.1

TAGGCTATTT
switch fluorescence ratio: 0.991

CAGAATATGG
switch fluorescence ratio: 0.929

AATAGAGACA
switch fluorescence ratio: 0.984

ATACGAGACC
switch fluorescence ratio: 1.22

CCTGCTCGGT
switch fluorescence ratio: 1.05

AGTATAGTCT
switch fluorescence ratio: 0.908

AGGGGGCACC
switch fluorescence ratio: 0.925

TTTTATTCCC
switch fluorescence ratio: 0.967

CGCATAGCTG
switch fluorescence ratio: 1.07

TCCCGTGTAG
switch fluorescence ratio: 1.04

TCTATATGAG
switch fluorescence ratio: 0.994

TTTAACCGA
switch fluorescence ratio: 1.1

ACAGCATGGC
switch fluorescence ratio: 1.04

TTTATTCGAT
switch fluorescence ratio: 1

TTAGGTATAA
switch fluorescence ratio: 0.981

TAAAGCTACC
switch fluorescence ratio: 1.51

TAATTGGAAG
switch fluorescence ratio: 0.963

GCGCGGTTGG
switch fluorescence ratio: 0.994

TCTAAATTCT
switch fluorescence ratio: 1

TTGCCAACGC
switch fluorescence ratio: 1.03

CGTTGGCTAG
switch fluorescence ratio: 0.979

CCGAAGTTGT
switch fluorescence ratio: 2.32

ACTTGAGTAC
switch fluorescence ratio: 1.01

GCTTGGGGT
switch fluorescence ratio: 0.99

TTATATGGAT
switch fluorescence ratio: 0.98

AGAGTACCTA
switch fluorescence ratio: 0.997

GTGATCGTG
switch fluorescence ratio: 0.973

TTTTTTCTT
switch fluorescence ratio: 0.995

TCAATAAGAG
switch fluorescence ratio: 0.987

TAGTACATGA
switch fluorescence ratio: 1.05

ATGGAGAG
switch fluorescence ratio: 1.05

AGAGGCCGCT
switch fluorescence ratio: 1.11

CGCTTATATA
switch fluorescence ratio: 1.06

GCGAGTTGTA
switch fluorescence ratio: 1.01

CTCGTTGGAG
switch fluorescence ratio: 0.979

AGAGATGTAC
switch fluorescence ratio: 1.09

ATGCAGTTCC
switch fluorescence ratio: 1.04

TTTTCGAGG
switch fluorescence ratio: 0.992
